From publication PMC4336329 (PLoS ONE, 2015)
Out of some 310,000 compounds screened, about 14,000 (4.5%) showed an effect of 50% or more. Effects have a minus sign here. The list shows a part of the results. Where a SMILES comes first, the peptide text is derived from it. The star is where a group is joined. Cbz = O=C(OCc1ccccc1)*

Target: human ether-à-go-go-related gene (hERG) potassium channel (human, UniProt Q12809)
Test: primary screen, population patch clamp on CHO cells stably expressing hERG
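Further: peak tail current of the secondary pulse compared with the same well before compound.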

human ether-à-go-go-related gene (hERG) potassium channel, sequence (Q12809 whole entry, looked up): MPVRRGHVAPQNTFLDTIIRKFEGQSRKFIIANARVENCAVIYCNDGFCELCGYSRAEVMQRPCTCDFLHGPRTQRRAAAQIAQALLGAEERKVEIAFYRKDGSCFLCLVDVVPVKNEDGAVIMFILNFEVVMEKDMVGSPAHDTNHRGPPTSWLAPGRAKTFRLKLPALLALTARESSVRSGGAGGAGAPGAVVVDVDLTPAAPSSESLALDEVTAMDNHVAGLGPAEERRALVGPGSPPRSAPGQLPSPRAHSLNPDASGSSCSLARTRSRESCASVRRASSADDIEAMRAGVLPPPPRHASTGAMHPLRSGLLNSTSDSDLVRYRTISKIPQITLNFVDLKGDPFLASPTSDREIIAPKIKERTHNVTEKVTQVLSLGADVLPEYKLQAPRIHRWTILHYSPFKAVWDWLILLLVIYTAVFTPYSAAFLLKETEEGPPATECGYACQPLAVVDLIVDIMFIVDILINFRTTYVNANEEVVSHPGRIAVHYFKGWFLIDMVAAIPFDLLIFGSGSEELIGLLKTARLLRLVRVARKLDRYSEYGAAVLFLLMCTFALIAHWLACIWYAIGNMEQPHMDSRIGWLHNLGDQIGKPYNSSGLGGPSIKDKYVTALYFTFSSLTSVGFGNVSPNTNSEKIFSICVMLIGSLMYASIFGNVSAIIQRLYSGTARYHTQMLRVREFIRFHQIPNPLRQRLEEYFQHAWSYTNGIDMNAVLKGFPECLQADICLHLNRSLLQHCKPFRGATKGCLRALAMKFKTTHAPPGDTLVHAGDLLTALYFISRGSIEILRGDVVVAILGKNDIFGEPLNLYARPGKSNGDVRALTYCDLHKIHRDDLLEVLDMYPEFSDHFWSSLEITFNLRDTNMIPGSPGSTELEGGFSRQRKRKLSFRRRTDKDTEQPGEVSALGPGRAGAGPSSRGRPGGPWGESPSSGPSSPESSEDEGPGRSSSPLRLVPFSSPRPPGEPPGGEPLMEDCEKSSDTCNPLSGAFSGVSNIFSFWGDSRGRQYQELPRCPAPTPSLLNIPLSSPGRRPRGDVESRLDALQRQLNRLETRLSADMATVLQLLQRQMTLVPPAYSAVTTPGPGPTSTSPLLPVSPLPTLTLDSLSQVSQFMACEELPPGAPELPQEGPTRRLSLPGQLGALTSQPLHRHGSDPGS

Row | SMILES | hERG current change (%, negative = inhibition) at 10uM [%]
1 | COc1cc(C(C)=O)ccc1OCC(=O)Nc1ccc2nc(C)sc2c1 | 13.4
2 | CCCn1c(=O)c2c(nc3n2CCCN3Cc2ccccc2)n(C)c1=O | -34.3
3 | CCc1cccc(CC)c1NC(=O)COc1ccccc1C(=O)c1cc(C#N)c(=O)n(C2CCCCC2)c1 | 14.4
4 | CCC(C)(C)C(=O)O | 11.8
5 | COc1ccccc1C(=O)c1c(C)c(CCC#N)n2ccccc12 | 1.62
6 | CCCCOc1ccc(NC(=O)c2cc(F)c(F)cc2Cl)cc1 | -12.9
7 | COc1ccc(-c2[nH]ncc2CN(C)Cc2c(C)n[nH]c2C)c(OC)c1 | 8.4
8 | CNCc1ccccc1OCc1ccc(F)cc1.Cl | -7.08
9 | Cc1cc(C)c(NC(=O)CNC(=O)COC(=O)C2CCN(c3ccc(C(F)(F)F)cn3)CC2)c(C)c1 | -18.4
10 | N#Cc1ccccc1S(=O)(=O)N1CCN(C(=O)C2CCC2)CC1 | 2.8
11 | CC(C)C(=O)NC(=S)Nc1ccc(S(=O)(=O)N(C)Cc2ccccc2)cc1 | 13.5
12 | O=c1c2ccccc2nc(SCc2ccccc2Cl)n1Cc1ccccc1 | 11.7
13 | O=C(NC1CCCCC1)C1CCN(c2cnccn2)CC1 | 13.9
14 | CC(=O)N1CCC(N(CCN2CCOCC2)C(=S)Nc2ccc(C)c(C)c2)CC1 | 1.37
15 | CC(C)Cc1nc(N2CCCCC2)c(C#N)c2c1CCC2 | -11.3
16 | COc1ccc(N=C2NC(=O)/C(=C\c3ccco3)S2)cc1 | 5.24
17 | Cc1cc(C)cc(OCC(=O)Nc2nonc2NC(=O)COc2cc(C)cc(C)c2)c1 | -3.34
18 | Cc1[nH]c2ccccc2c1/C=N/NC(=O)c1cccc([N+](=O)[O-])c1 | 17.1
19 | Cc1cc(N2CCCC2)nc2ccc(NC(=S)NC(C)C)cc12 | -71.6
20 | C=CCOc1c(OC)cc(/C=N/Nc2cccc(C(=O)O)c2)c(Br)c1Br | 39.1
21 | COCc1nnc(NC(=O)c2ccc(NC(=O)C(C)C)cc2)s1 | 9.33
22 | Cc1cccc(Cn2c(=O)n(Cc3ccco3)c(=O)c3ccccc32)c1 | 3.71
23 | N/C(=N\NC(=O)c1sccc1OCc1ccc(Cl)cc1Cl)c1ccccn1 | 10.9

Row | SMILES | hERG current change (%, negative = inhibition) at 10uM [%]
24 | CCOC(=O)N1CCc2c(sc3nc[nH]c(=O)c23)C1 | 4.56
25 | COc1cc(/C=C(\C#N)C(N)=O)ccc1OCc1c(C)no[n+]1[O-] | -34
26 | Cc1occc1C(=O)NN=C1C2CC3CC(C2)CC1C3 | -3.36
27 | O=C(COC(=O)c1cnc(Cl)c(Cl)c1)NC1CCCCCC1 | 14.9
28 | COc1cccc(OCCSc2nc(N)cc(N)n2)c1 | -3.95
29 | O=C(Nc1cccc(-c2nnco2)c1)c1cccs1 | -1.6
30 | CCC(C)C(NC(=O)OCc1ccccc1)C(=O)NC(Cc1ccc(O)cc1)C(=O)OC (stereo not drawn) (Cbz-Ile-Tyr-OMe; configuration not given here) | 9.25
31 | CC(Sc1nnc(COc2ccc(Cl)cc2)n1Cc1ccccc1)C(=O)O (stereo not drawn) | 3.06
32 | CC(=O)N1CCN(CCN=CC2=C(O)CC(C)(C)CC2=O)CC1 | 8.49
33 | CCOC(CCn1c(SCc2ccc([N+](=O)[O-])cc2)nc2ccccc2c1=O)OCC | -39
34 | Cc1cc(NC(=O)CCC(=O)N(CC(=O)NC2CCCC2)Cc2ccc(F)cc2)no1 | 4.02
35 | CCc1ccc(S(=O)(=O)NCc2csc(C)n2)cc1 | 6.32
36 | COc1cccc(CC(=O)NNC(=O)c2ccc3c(c2)OCO3)c1 | 1.7
37 | COc1cc(C)c(Br)cc1S(=O)(=O)NCc1cccs1 | -42.2
38 | Cc1ccc(NC(=O)CSc2nccn2Cc2ccco2)cc1 | 1.81
39 | CS(=O)(=O)N(Cc1ccccc1)c1ccc(C(=O)Nc2ccc(C(N)=O)cc2)cc1 | 12.8
40 | Cc1cc(=O)[nH]n(CCO)c1=O | 14.7
41 | O=C(COc1ccccc1Br)N1CCN(C(=O)c2cccs2)CC1 | -32.2
42 | CC1(C)CC(=O)C2=C(C1)OC(c1ccncc1)C(C#N)=C2N (stereo not drawn) | -8.14
43 | CCCN(CC(=O)Nc1cc(Cl)ccc1Cl)C(=O)c1ccccc1SCC(=O)N1CCCC1 | -21.3
44 | COc1cccc(OC)c1C(=O)Nn1c(-c2cccs2)nc2ccccc2c1=O | -6.58
45 | CC1Cc2ccccc2N1C1=NS(=O)(=O)c2ccccc21 (stereo not drawn) | -0.394
